# Screen size: about 310,000 compounds; about 14,000 (4.5%) showed an effect of 50% or more. The effect is printed as a negative number. The list shows a part of the results.
# Target: human ether-à-go-go-related gene (hERG) potassium channel (human, UniProt Q12809)
# Assay: primary screen, population patch clamp on CHO cells stably expressing hERG
# 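Note: peak tail current of the secondary pulse compared with the same well before compound.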
# human ether-à-go-go-related gene (hERG) potassium channel, sequence (Q12809 whole entry, looked up): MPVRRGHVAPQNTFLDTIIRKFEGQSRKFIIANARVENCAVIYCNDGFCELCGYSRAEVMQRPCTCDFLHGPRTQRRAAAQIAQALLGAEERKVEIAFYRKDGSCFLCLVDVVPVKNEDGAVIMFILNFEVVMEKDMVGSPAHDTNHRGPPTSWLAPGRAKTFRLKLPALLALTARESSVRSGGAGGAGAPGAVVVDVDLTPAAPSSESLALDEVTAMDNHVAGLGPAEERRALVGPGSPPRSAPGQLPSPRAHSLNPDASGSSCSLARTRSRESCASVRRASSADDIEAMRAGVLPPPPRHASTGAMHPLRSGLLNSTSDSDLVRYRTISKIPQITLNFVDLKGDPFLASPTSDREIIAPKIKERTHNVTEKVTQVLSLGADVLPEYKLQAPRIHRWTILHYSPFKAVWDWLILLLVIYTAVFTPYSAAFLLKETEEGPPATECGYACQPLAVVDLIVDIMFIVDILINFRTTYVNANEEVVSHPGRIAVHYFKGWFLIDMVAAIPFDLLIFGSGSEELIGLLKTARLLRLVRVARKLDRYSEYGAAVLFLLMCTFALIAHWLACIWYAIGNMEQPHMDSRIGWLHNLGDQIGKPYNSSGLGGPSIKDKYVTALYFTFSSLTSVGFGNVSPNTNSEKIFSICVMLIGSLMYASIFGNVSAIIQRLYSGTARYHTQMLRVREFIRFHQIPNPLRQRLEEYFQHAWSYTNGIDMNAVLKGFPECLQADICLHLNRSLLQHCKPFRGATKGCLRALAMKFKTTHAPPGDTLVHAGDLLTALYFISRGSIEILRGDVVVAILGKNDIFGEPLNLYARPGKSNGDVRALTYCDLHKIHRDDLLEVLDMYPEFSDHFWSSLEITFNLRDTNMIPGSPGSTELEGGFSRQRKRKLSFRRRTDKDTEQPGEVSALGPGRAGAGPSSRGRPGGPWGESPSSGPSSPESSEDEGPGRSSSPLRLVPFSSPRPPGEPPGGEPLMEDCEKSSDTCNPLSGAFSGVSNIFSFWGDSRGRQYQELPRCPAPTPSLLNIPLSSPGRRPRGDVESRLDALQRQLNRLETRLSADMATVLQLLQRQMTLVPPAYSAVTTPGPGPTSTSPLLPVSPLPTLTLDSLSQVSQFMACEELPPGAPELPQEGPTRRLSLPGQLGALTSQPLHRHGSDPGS
row,Compound,"hERG current change (%, negative = inhibition) at 10uM [%]"
1,O=C(Cn1c2ccc(F)cc2c2nc3n(c(=O)c21)CCS3)NC1CCCC1,4.11
2,CC(=O)Nc1ccc(Nc2ncc([N+](=O)[O-])c(Nc3ccc(NC(C)=O)cc3)n2)cc1,1.84
3,CCC[N+]1(CC#CC2(O)CCCCC2)CCOCC1.[I-],20.9
4,N#Cc1ccccc1NS(=O)(=O)c1cc2c3c(c1)CCN3C(=O)CC2,11.3
5,S=c1[nH]nc(COc2ccccc2)n1/N=C/C(Cl)=C/c1ccccc1,7.14
6,COc1cccc(NC(=S)N2CCCC2)c1,10.4
7,Cc1ccc(NC(=O)CN(C)C(=O)C2COc3ccccc3O2)cc1 (stereo not shown),14.2
8,CCc1nnc(NC(=O)CSc2nnc(CNc3ccc(Cl)cc3)o2)s1,-7.28
9,O=C1CN(C(=O)c2ccco2)c2ccccc2N1,3.05
10,CCCc1ccc(C(=O)O/N=C(\N)c2ccccn2)cc1,-0.642
11,COc1ccc(-c2csc(/C=C/c3ccc4c(c3)OCO4)n2)cc1OC,7.5
12,CCOc1ccc(-c2c(C)sc3nc[nH]c(=O)c23)cc1,19
13,Cl.N=c1n(CCO)c2ccccc2n1CCOc1ccc(Cl)cc1Cl,-63.8
14,O=C(NC1CCCCC1)C(c1ccncc1)N(Cc1ccc2c(c1)OCO2)C(=O)c1cnsn1 (stereo not shown),-10.8
15,Cc1cc(C)cc(N2C(=O)CC(Cn3nc(C)cc3C)C2=O)c1 (stereo not shown),12.1
16,Fc1ccc(NC(=S)NCc2cccs2)cc1,2.45
17,O=S(=O)(c1cccc(-c2nnc3n2CCCCC3)c1)N1CCOCC1,-29.5
18,CCOC(=O)CSc1nnc(CNC(=O)c2cccs2)n1-c1ccccc1,-5.51
19,CCCCCCCN1C(Nc2ccccc2)=NC[C@@H]1Cc1ccccc1,-83.3
20,CC(C)CN(C(=O)COC(=O)C(C)N1C(=O)c2ccccc2C1=O)c1c(N)n(Cc2ccccc2)c(=O)[nH]c1=O (stereo not shown),-7.78
21,CCOC(=O)c1cc(S(=O)(=O)NCc2ccco2)cn1C,0.219
22,C/C(=N\Nc1nc2ccccc2s1)c1ccc2c(c1)OCO2,32.4

row,Compound,"hERG current change (%, negative = inhibition) at 10uM [%]"
1,CCCCCOC(=O)C1[C@H]2C(=O)N(Cc3cccs3)C[C@]23C=C[C@H]1O3 (stereo partly shown),1.95
2,Cc1ccc([N+](=O)[O-])cc1NC(=O)CN1CCC(C)CC1,-1.56
3,COCCNC(=S)N1CCN(c2cccc(C)c2C)CC1,7.38
4,O=S(=O)(Nc1cccnc1)c1ccc(F)cc1,16.6
5,O=C(O)/C=C/C(=O)Nc1ccc(OC(F)F)cc1,20.8
6,O=C(NCCN1CCOCC1)c1ccc2c(c1)N(Cc1ccccc1F)C(=O)c1ccccc1S2,-27
7,Cc1ccc(/C=C2/SC(=S)N(c3ccc(S(=O)(=O)Nc4nccs4)cc3)C2=O)cc1,6.74
8,Cc1cc(C)c(NC(=O)CSc2nnc(-c3ccncc3)n2Cc2ccco2)c(C)c1,-31.6
9,Cc1ccccc1C1C(C#N)=C2NC(=O)c3c(sc4c3CCCCC4)N2C2=C1C(=O)CC(C)(C)C2 (stereo not shown),14.5
10,CCOc1cc(/C=C/c2cc(C(F)(F)F)[nH]c(=O)n2)ccc1O,16.7
11,COc1ccccc1N1CCN(Cc2cc(C)c(C)cc2O)CC1,-37.1
12,Cc1cccc(C)c1NC(=S)N(Cc1cccnc1)Cc1ccccc1Cl,-19.3
13,Cc1nnc(Nc2ccc(F)cc2)c2ccccc12,-42
14,COc1ccc(-c2cc3cc(-c4cc(OC)c(OC)c(OC)c4)ccc3o2)cc1,-0.134
15,Cn1c(CSc2nc3ccccc3n2C)nc2ccccc21,-5.21
16,C#CCn1cnc2c(cnn2-c2ccc(C)c(C)c2)c1=O,3.21
17,Cc1ccc(-c2cc(C(F)F)nc(NCc3cccnc3)n2)cc1,8.36
18,Cc1nn(C(C)C(=O)NNC(=S)Nc2ccc(Cl)cc2)c(C)c1[N+](=O)[O-] (stereo not shown),14.5
19,COc1ccc(-c2nc(C#N)c(NCCCN3CCOCC3)o2)cc1,-13
20,Cc1cccc(NC(=O)c2nc[nH]c2C(=O)NCc2ccccc2)c1,11.6
21,CSc1nc2nc3c(c(=O)n2[nH]1)CN(Cc1ccccc1)CC3,-20.5
22,CC(=O)O[C@H]1[C@H]2O[C@]23[C@@H]2CC[C@]4(O)C[C@@H](O)CC[C@]4(C)C2CC[C@]3(C)[C@H]1c1ccc(=O)oc1 (stereo partly shown),-8.54

row,Compound,"hERG current change (%, negative = inhibition) at 10uM [%]"
1,NS(=O)(=O)c1cnccc1Nc1ccc(Cl)c(Cl)c1,-19
2,CC1(C)CC(=O)CC(=NCC(=O)O)C1,-1.91
3,O=P(c1ccccc1)(c1ccccc1)c1nc(-c2ccccc2)oc1N1CCOCC1,-20.5
4,CCc1nnc(NC(=O)CCC2CCCCC2)s1,1.92
5,Cc1cc(C)cc(Oc2ccc(N)cc2)c1,-15.1
6,Nc1ccc(CCNc2ncnc3c2ncn3[C@@H]2O[C@H](CO)[C@@H](O)[C@H]2O)cc1,13.3
7,Cc1onc(-c2ccccc2)c1C(=O)Nc1c(C)n(C)n(-c2ccccc2)c1=O,11.7
8,CN(C)S(=O)(=O)c1cccc(NC(=O)c2cc3c(cc2Cl)N2CCCCCC2=NS3(=O)=O)c1,5.64
9,COC(=O)C1=C(C)N(c2ccc(OC)cc2)C(C)=C(C(=O)OC)C1c1ccccc1,4.58
10,Cc1noc(NS(=O)(=O)c2ccc(N/C=C/C(=O)c3ccc(F)cc3)cc2)c1C,-7.67
11,O=C(/C=C/c1ccc(F)cc1)Nc1ccc(S(=O)(=O)N2CCOCC2)cc1,9
12,Cc1cccc(OC(=O)c2ccc3nccnc3c2)c1,-2.41
13,O=C1CC(=Nc2ccccc2)NN1c1ccccc1,23.1
14,O=C(c1ccco1)N1CCN(c2ncnc3scc(-c4ccccc4)c23)CC1,-64.5
15,Cc1ccc(-n2ncc(-c3nnc(SCC(=O)NC4CCCC4)o3)c2N)cc1C,-8.5
16,CC(C(=O)N1c2ccccc2Sc2ccccc21)n1nnc(-c2cccs2)n1 (stereo not shown),4.01
17,O=S(=O)(Cc1ccccc1Cl)NCc1ccccc1,7.02
18,CCc1noc(C)c1C(=O)OCC(=O)NCc1ccccc1OC,13.9
19,Cc1csc(NC(=O)C(C)Oc2ccc(Cl)cc2C)n1 (stereo not shown),-21
20,Cc1ccc(Cl)cc1NC(=S)N(CCCN1CCN(C)CC1)Cc1ccco1,-52.3
21,CCOC(=O)C(=O)c1c(-c2ccc(C)cc2)nc2ccccn12,2.21
22,Cc1ccc(NC(=O)COC(=O)Cn2cnc3ccccc32)c([N+](=O)[O-])c1,13.7

row,Compound,"hERG current change (%, negative = inhibition) at 10uM [%]"
1,COc1ccc2cc(C(=O)N3CCN(c4ccccc4F)CC3)[nH]c2c1,13.6
2,CCc1cccc(C)c1NC(=O)COC(=O)CNS(=O)(=O)/C=C/c1ccccc1,14.6
3,Cc1ccc(S(=O)(=O)N[C@@H](Cc2ccccc2)C(=O)N2CCC(C(=O)N[C@@H](CC(C)C)C(=O)O)CC2)cc1,25.5
4,Cc1cc(NC(=O)CCC(=O)N(c2cccc(F)c2)C(C(=O)NC2CCCC2)c2ccccc2)no1 (stereo not shown),26.1
5,COc1ccc(NC(=O)c2sc(NC(=O)C3CC3)nc2C)cc1,0.607
6,CSCCC(NC(=O)COc1ccccc1)C(=O)N1CCN(c2ccccc2F)CC1 (stereo not shown),-43.4
7,Cn1c(=O)c([N+](=O)[O-])c(NCCc2ccccc2)c2ccccc21,-4.42
8,CCOC(=O)CSc1nnc(CNC(=O)c2ccc(OC)cc2)n1C1CCCCC1,-8.07
9,CC1C/C(=N\NC(N)=S)c2cc(Cl)ccc2S1 (stereo not shown),7.32
10,Cn1cccc1C(=O)NC(=O)COC(=O)CC12CC3CC(CC(C3)C1)C2,13.7
11,c1cc2c3c(cccc3c1)NC1(CCCCC1)N2,8.99
12,CCOC(=O)C1CC(=O)c2cc(OC)c(OC)cc2C1 (stereo not shown),14.5
13,CCOC(=O)NC(=O)C(=CNNc1ncc(C(F)(F)F)cc1Cl)C(=O)NC(=O)OCC,15
14,COc1ccc(-c2nc3ccccc3c(=O)[nH]2)cc1,9.31
15,O=C(O)c1cnn(-c2ccccc2)c1C(F)(F)F,28.8
16,O=C(CN1CCN(Cc2ccccc2Cl)C1=O)NCc1ccccn1,17.4
17,CCc1ccc(OCCCC(=O)NCc2ccco2)cc1,1.95
18,O=C(Nc1ccccc1)C1C2/C=C\CCCCC21 (stereo not shown),16.6
19,C=C(C)C(=O)Nc1cccc(C2=NOC3(C2)C[C@@H](C(N)=O)N(C(=O)c2cc([N+](=O)[O-])cc([N+](=O)[O-])c2C)C3)c1 (stereo partly shown),1.96
20,Cc1cc(=O)[nH]c(SCC(=O)NCC2CCCO2)n1 (stereo not shown),6.76
21,CC1CN(C(=O)c2cc(-c3ccncc3)nc3ccccc23)CC(C)O1 (stereo not shown),-8.43
22,Cn1cccc1C1C(C#N)=C(N)OC2=C1C(=O)CCC2 (stereo not shown),14.6

# Reference: publication PMC4336329 (PLoS ONE, 2015)
